# The campaign covered roughly 5,400 compounds. About 190 (3.5%) showed an effect of 50% or more. The list shows a part of the results. Positions of bridges follow the written chain, without caps; N, C: chain ends. Non-standard residues stand in square brackets, D forms with d. Residues, ends and D or L forms follow the SMILES beside them. *: point of attachment. dPhe(4-NHCONH2) = NC(=O)Nc1ccc(C[C@@H](N)C(=O)O)cc1; Dihydroorotyl(S) = O=C1C[C@@H](C(=O)*)NC(=O)N1; dPhe(4-Cl) = N[C@H](Cc1ccc(Cl)cc1)C(=O)O; Phe(4-NH2) = Nc1ccc(C[C@H](N)C(=O)O)cc1; d2Nal = N[C@H](Cc1ccc2ccccc2c1)C(=O)O; Lys(iPr) = CC(C)NCCCC[C@H](N)C(=O)O; d3Pal = N[C@H](Cc1cccnc1)C(=O)O
# System: Vero-E6
# Assay: primary screen, phospholipidosis by LipidTOX staining; higher = more effect of the substance
# Conditions: 10 µM
# Summary of the method: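 Single-concentration screen at 10 μM, with DMSO 0.1 v/v % and amiodarone 10 μM as controls. Read-out is LipidTOX Red phospholipid staining, which tolerates aldehyde fixation, in Vero-E6 cells.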
row,Structure (SMILES),result_ITMP [%]
1,COc1ccc2nc3ccc(Cl)cc3c(SCCCN)c2c1,-9.55
2,CN1CC(=O)NC1=N,-2.8
3,Cn1c(COP(=O)(NCCBr)NCCBr)cnc1[N+](=O)[O-],-1.53
4,O=C(Cc1ccc(-c2ccc(OCCN3CCOCC3)cc2)cn1)NCc1ccccc1,15.5
5,COCCN1CCC(C(=O)NO)(S(=O)(=O)c2ccc(Oc3ccc(OC(F)(F)F)cc3)cc2)CC1,-0.66
6,N[C@@H]1CCCCN(c2c(F)cc3c(=O)c(C(=O)O)cn(C4CC4)c3c2Cl)C1,-1.6
7,O=[N+]([O-])c1ccc2c(c1)S(=O)(=O)C=C2,-15.1
8,C/C(O)=C(\C#N)C(=O)Nc1cc(Br)ccc1Br,-1.16
9,CN(C)CCC(O)(c1ccccc1)c1ccccc1Cl (stereo not shown),0.93
10,CSc1ccccc1OCC(O)CNC(C)C (stereo not shown),0.09
11,CC[C@H]1OC(=O)[C@H](C)[C@@H](O[C@H]2C[C@@](C)(OC)[C@@H](O)[C@H](C)O2)[C@H](C)[C@@H](O[C@@H]2O[C@H](C)C[C@H](N(C)C)[C@H]2O)[C@](C)(OC)C[C@@H](C)C(=O)[C@H](C)[C@@H](O)[C@]1(C)O,-11.1
12,CCOc1ccccc1OCC1CNCCO1 (stereo not shown),-0.95
13,NC(=O)Cc1cccc(C(=O)c2ccccc2)c1N,-4.4
14,C[C@H]1COC2=C1C(=O)C(=O)c1c2ccc2c1CCCC2(C)C,-1.74
15,CN(C)CC[C@H](CSc1ccccc1)Nc1ccc(S(=O)(=O)NC(=O)c2ccc(N3CCN(Cc4ccccc4-c4ccc(Cl)cc4)CC3)cc2)cc1[N+](=O)[O-],-6.66
16,CCCCC1=NC2(CCCC2)C(=O)N1Cc1ccc(-c2ccccc2-c2nnn[nH]2)cc1,-11.8
17,CC1=CC(=O)[N-]S(=O)(=O)O1,-5.65
18,CCCCOC(=O)c1ccc(N)cc1,-3.08
19,O=C(Nc1ccc(C(=O)O)c(O)c1)c1ccccc1,3.46
20,COc1[nH]c2ccc(F)cc2c1C(=O)OCC1CCN(CCNS(C)(=O)=O)CC1,-0.84
21,CCN(Cc1ccc(Cl)nc1)/C(=C/[N+](=O)[O-])NC,0.71

row,Structure (SMILES),result_ITMP [%]
1,O=C(Nc1cc(C(F)(F)F)ccc1O)Nc1cc(C(F)(F)F)ccc1O,2.26
2,Cc1ccccc1-n1c(Cn2ncc3c(N)ncnc32)nc2cccc(C)c2c1=O,0.34
3,CSC[C@H](N)C(=O)O,-1.63
4,CO/N=C1\C[C@@H](C(=O)NC[C@@H](O)c2ccccc2)N(C(=O)c2ccc(-c3ccccc3C)cc2)C1,0.8
5,CN(C)C(=O)COC(=O)Cc1ccc(OC(=O)c2ccc(NC(=N)N)cc2)cc1,-0.95
6,COc1ccc(Cc2cnc(N)nc2N)cc1OC,-5.91
7,CC(C)C[C@@H]1NC(=O)[C@@H](C(C)C)NC(=O)[C@@H]2CCCN2C(=O)[C@@H](CC(=O)O)NC(=O)[C@@H](Cc2c[nH]c3ccccc23)NC1=O (cyclo(L[dW][dD]P[dV])),-4.98
8,COc1cc(CN(CCN)C(=O)c2cccs2)ccc1OCc1ccccc1,85.4
9,CC(Cc1ccccc1)(NC(=O)CN)c1ccccc1 (stereo not shown),8.52
10,CCCC(C)(COC(N)=O)COC(=O)NC(C)C (stereo not shown),-1.53
11,CCC1(C)CC(=O)NC(=O)C1,-1.29
12,N=C(N)NC(=O)c1nc(Cl)c(N)nc1N,-2.3
13,CC(=O)[C@H]1CCC2C3CCC4=CC(=O)CC[C@]4(C)C3CC[C@@]21C (stereo partly shown),-2.09
14,CCCCCCCCCCC(O)C1C=CC2C(=O)N(c3ccccc3)C(=O)C2N1Nc1ccc([N+](=O)[O-])cc1 (stereo not shown),-1.8
15,O=C(CO)[C@@H](O)[C@@H](O)[C@H](O)CO,-3.35
16,Nc1cccc2c(=O)[nH][nH]c(=O)c12,-1.77
17,NC(CSC(c1ccccc1)(c1ccccc1)c1ccccc1)C(=O)O (stereo in doubt),-1.96
18,COc1cccc(OC)c1OCCNCC1COc2ccccc2O1 (stereo not shown),-4
19,O=C1NCN(c2ccccc2)C12CCN(CCCC(c1ccc(F)cc1)c1ccc(F)cc1)CC2,1.98
20,O=C(Nc1ccc(-c2ccnc(Nc3ccc(N4CCOCC4)cc3)n2)cc1)[C@@H]1CCCN1,26.6
21,CC(C)(C)C(=O)OCOC(=O)[C@@H]1N2C(=O)[C@@H](NC(=O)[C@H](N)c3ccccc3)[C@H]2SC1(C)C,-4.27

row,Structure (SMILES),result_ITMP [%]
1,CCC(=O)N1CCOc2c(cc(-c3ccc(OC)c(OC)c3)cc2OC[C@H]2CCCN(C)C2)C1,17.6
2,COc1ccc(CN(C(=O)[C@@H](N)Cc2c(C)cc(C(N)=O)cc2C)[C@@H](C)c2ncc(-c3ccccc3)[nH]2)cc1C(=O)O,-0.29
3,CCS(=O)(=O)N(C)[C@H]1c2cc(C#N)ccc2OC(C)(C)[C@@H]1O,-6.66
4,Cc1cc(C2CCCCC2)n(O)c(=O)c1,1.78
5,CC1=C(C(=O)OC(C)C)C(c2cccc([N+](=O)[O-])c2)C(C(=O)OC2CN(C(c3ccccc3)c3ccccc3)C2)=C(N)N1 (stereo not shown),-9.99
6,COc1cc(C(=O)NS(=O)(=O)c2ccccc2C)ccc1Cc1cn(C)c2ccc(NC(=O)OC3CCCC3)cc12,-4.05
7,CN[C@H]1CN(c2ccc3c(=O)c(C(=O)O)cn(-c4nccs4)c3n2)C[C@@H]1OC,-1.77
8,Cl[C@H]1[C@H](Cl)[C@@H](Cl)[C@@H](Cl)[C@H](Cl)[C@H]1Cl,-3.66
9,CC(=O)N[C@H](Cc1ccc2ccccc2c1)C(=O)N[C@H](Cc1ccc(Cl)cc1)C(=O)N[C@H](Cc1cccnc1)C(=O)N[C@@H](CO)C(=O)N[C@@H](Cc1ccc(NC(=O)[C@@H]2CC(=O)NC(=O)N2)cc1)C(=O)N[C@H](Cc1ccc(NC(N)=O)cc1)C(=O)N[C@@H](CC(C)C)C(=O)N[C@@H](CCCCNC(C)C)C(=O)N1CCC[C@H]1C(=O)N[C@H](C)C(N)=O (Ac-[d2Nal][dPhe(4-Cl)][d3Pal]S[Phe(4-NH2)](Dihydroorotyl(S))[dPhe(4-NHCONH2)]L[Lys(iPr)]P[dA]-NH2),-13.2
10,CNC(=O)c1ccccc1Nc1nc(Nc2ccc3c(c2OC)CCC[C@H](N2CCN(CCO)CC2)C3)ncc1Cl,139
11,CCCn1c(=O)c2[nH]c(-c3cnn(Cc4cccc(C(F)(F)F)c4)c3)nc2n(CC)c1=O,-2.26
12,O=C(O)c1cc(=O)c2ccccc2o1,-0.64
13,Oc1cc(O)c2cc(O)c(-c3cc(O)c(O)c(O)c3)[o+]c2c1,-9.23
14,CCC(CC)C(c1ccc(Nc2nc3ccccc3s2)cc1)n1cncn1 (stereo not shown),-2.26
15,Fc1ccc(-c2nc(-c3c(F)cccc3F)[nH]c2-c2ccncc2)cc1,-0.33
16,Cc1ccc2c(c1)C1(CCN(CCc3nc(-c4ccccc4)oc3C)CC1)OC(=O)N2,-2.38
17,NCCCC[C@H](NC(=O)[C@@H]1CCCN1C(=O)[C@@H]1CSSC[C@H](NC(=O)CNC(=O)CNC(=O)CN)C(=O)N[C@@H](Cc2ccc(O)cc2)C(=O)N[C@@H](Cc2ccccc2)C(=O)N[C@@H](CCC(N)=O)C(=O)N[C@@H](CC(N)=O)C(=O)N1)C(=O)NCC(N)=O (H-GGGCYFQNCPKG-NH2; disulfide 4-9),0.09
18,Oc1ccc(Cl)cc1Cc1cc(Cl)ccc1O,-6.35
19,NS(=O)(=O)c1cc(C(=O)O)c(NCc2ccco2)cc1Cl,-2.4
20,NC(=O)CN1CC(c2ccccc2)CC1=O (stereo not shown),-1.72
21,CCOc1cc([C@@H](CS(C)(=O)=O)N2C(=O)c3cccc(NC(C)=O)c3C2=O)ccc1OC,-5.1

row,Structure (SMILES),result_ITMP [%]
1,C[C@]12CCC(=O)C[C@@H]1CC[C@@H]1[C@@H]2CC[C@]2(C)C=CC[C@@H]12,-0.52
2,O=C1Nc2ccc(Cl)c3c2C1(CCCCN1CC=C(c2ccc(Cl)cc2)CC1)CCC3 (stereo not shown),70.2
3,Nc1nc2[nH]nnc2c(=O)[nH]1,1.34
4,NC(=O)c1ncn([C@@H]2O[C@H](CO)[C@@H](O)[C@H]2O)n1,-3.24
5,CCC(CC)(CC(=O)Nc1cccc(/C=C/c2nc(C3CCC3)cs2)c1)C(=O)O,-1.87
6,O=C(NCc1ccncc1)C12CC3CC(C1)CC(c1ccc(Cl)cc1)(C3)C2,3.36
7,CCCCCCCCCCCCCCCCNc1ccc(C(=O)O)cc1,0.86
8,CCOC(=O)[C@H](CCc1ccccc1)N[C@@H](C)C(=O)N1[C@H](C(=O)O)C[C@@H]2CCC[C@@H]21,-13.1
9,Nc1nc(=O)n([C@H]2C[C@H](O)[C@@H](CO)O2)cc1F,1.64
10,CC[C@@]1(O)C(=O)OCc2c1cc1n(c2=O)Cc2cc3c([N+](=O)[O-])cccc3nc2-1,43
11,CNC(=O)c1ccc(-c2cnc3ncc(Cc4ccc5ncccc5c4)n3n2)cc1F,0.88
12,CN1CCN(C(=O)C2C(C(=O)O)[C@@H]3CC[C@H]2O3)CC1 (stereo partly shown),0.66
13,Cc1ccc(S(=O)(=O)n2c(N)nc3ccccc32)cc1,-3.34
14,CC(O)CN1CCN(CC(=O)[O-])CCN(CC(=O)[O-])CCN(CC(=O)[O-])CC1.[Gd+3] (stereo not shown),-2.95
15,CC(C)c1ccc(C(=O)c2cccs2)c(SCCCCCCCCN(C)C)n1,77
16,Cc1cc(OCC(=O)O)cc(C)c1Cc1ccc(O)c(C(C)C)c1,-1.53
17,CC(C)COCC(CN(Cc1ccccc1)c1ccccc1)N1CCCC1 (stereo not shown),66.8
18,CCN(Cc1ccccc1)C(=O)Cn1c(=O)n(C)c2cnc(-c3ccccc3)nc21,-3.61
19,COc1cc2c(cc1OC(C)C)[C@H](c1ccc(Cl)cc1)N(c1ccc(N(C)C[C@H]3CC[C@H](N4CCN(C)C(=O)C4)CC3)cc1)C(=O)C2,19.8

# Reference: publication PMC13083723 (Patterns, 2026)
